Data on 1 protein can be found in US20210032314.

The target of data set [1] is native A1AT (Zemaira®), purified natively glycosylated alpha-1 antitrypsin preparation, P01009.
Data set [2] concerns the target recombinant human alpha-1 antitrypsin glycoprotein with non-native glycosylation (rA1AT).

Chain of native A1AT (Zemaira®), purified natively glycosylated alpha-1 antitrypsin preparation, P01009 (P01009 whole entry, looked up): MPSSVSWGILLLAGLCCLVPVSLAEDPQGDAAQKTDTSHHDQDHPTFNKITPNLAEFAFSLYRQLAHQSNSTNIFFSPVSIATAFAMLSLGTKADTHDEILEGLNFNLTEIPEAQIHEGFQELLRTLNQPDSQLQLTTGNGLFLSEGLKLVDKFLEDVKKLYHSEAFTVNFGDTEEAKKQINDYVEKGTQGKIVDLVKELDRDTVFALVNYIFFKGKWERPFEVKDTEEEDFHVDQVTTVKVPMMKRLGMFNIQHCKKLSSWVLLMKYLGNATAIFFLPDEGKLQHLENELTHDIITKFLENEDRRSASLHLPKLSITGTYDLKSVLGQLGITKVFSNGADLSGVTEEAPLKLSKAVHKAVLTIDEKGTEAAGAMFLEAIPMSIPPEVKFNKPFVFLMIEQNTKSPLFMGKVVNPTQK

B1: Elastase (protein)
chain: VVGGTEAQRNSWPSQISLQYRSGSSWAHTCGGTLIRQNWVMTAAHCVDRELTFRVVVGEHNLNQNDGTEQYVGVQKIVVHPYWNTDDVAAGYDIALLRLAQSVTLNSYVQLGVLPRAGTILANNSPCYITGWGLTRTNGQLAQTLQQAYLPTVDYAICSSSSYWGSTVKNSMVCAGGDGVRSGCQGDSGGPLHCLVNGQYAVHGVTSFVSRLGCNVTRKPTVFTRVSAYISWINNVIASN
Consider B1, for which the “elastase activity (N-succinyl-Ala-Ala-Ala-p-nitroanilide substrate, 405 nm)” value in data set [1] and in data set [2] was “native A1AT (Zemaira®) inhibited Elastase activity approximately 30% more than did recombinant rA1AT glycoprotein” in each case.
